According to PubChem BioAssay AID686978 (National Center for Advancing Translational Sciences (NCATS), 2013):
Where “and” joins values, the source holds several entries; their conditions need not be identical. Equal values may be shown once. Hit rate of the full screen: of about 420,000 compounds, about 64,000 (15%) were called active. Inconclusive means that the source gave no clear call. Such entries were picked first, then a sample of the others. Calls follow the shape of the dose curve; as a rule, active = well fitted inhibition curve with a large enough effect; inconclusive = small, poorly fitted or top-dose-only effect; inactive = flat fitted curve, though single readings scatter. Potencies of inconclusive entries are left out as doubtful fits.

Assay: qHTS for Inhibitors of human tyrosyl-DNA phosphodiesterase 1 (TDP1): qHTS in cells in absence of CPT; also: nearly all actives have a fitted effect of over 55% in size
Conditions: DT40 Tdp1-/- hTDP1 cells, no CPT, ATP luminescence, 48 h; activity change, negative = growth inhibition: at 46.2 µM (top of the series) unless noted
Procedure, shortened: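 A cellular qHTS used chicken DT40 cells lacking endogenous Tdp1 but carrying stably transfected human TDP1. Compounds were applied without camptothecin, and cell growth kinetics were judged by ATP-dependent luminescence after ≥48 hr.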
% is scaled to controls: 0 for no effect and ±100 for the full control effect; potency is read from the fitted curve at half-maximal effect; tags tell the direction and shape of the fitted curve.

Row | Structure (SMILES) | activity change, negative = growth inhibition | Potency
1 | COc1ccc(CCNC(=O)c2ccc(Cn3c(=O)[nH]c4cc(OC)c(OC)cc4c3=O)cc2)cc1OC | inactive: -19.3% | –
2 | O=C(CN1CCN(CC(=O)c2ccc(F)cc2)CC1)Nc1ccccc1Cl | – | inconclusive [inhibitor, single point]
3 | COc1ccc(-c2nc3cnc(N4CCOCC4)nc3n(-c3ccc(OC)cc3)c2=O)cc1 | – | inconclusive [inhibitor, single point]
4 | COc1ccc(CC(=O)NCc2nn(-c3ccccc3)nc2C)cc1OC | – | inconclusive [inhibitor, partial curve]
5 | CCCCc1nc(N2CCOCC2)c(C#N)c2c1COC(C)(C)C2 | – | inconclusive [inhibitor, partial curve]
6 | CCCCNC(=O)C1C(c2ccc(OC)cc2)=Nc2ccccc2N1C(=O)Cc1cc(OC)cc(OC)c1 (centres undefined) | – | inconclusive [inhibitor, single point]
7 | Nc1ccn([C@@H]2O[C@H](CO)[C@@H](O)[C@H]2O)c(=O)n1 | – | inactive
8 | Cc1ccc(OCC(=O)N/N=C\c2ccncc2)c(C)c1 | – | inconclusive [inhibitor, single point]
9 | COc1ccc(NC(=O)C2CCCN2C(=O)OCc2ccccc2)cc1 (centres undefined) | inactive: -2.46% | –
10 | CSc1ccc(/C=N/NC(=O)c2cccc(O)c2)cc1 | – | inconclusive [inhibitor, single point]
11 | CCOC(=O)C1=C(C)NC(C)=C(C(=O)OCC)C1c1ccc([N+](=O)[O-])s1 | – | active: 18.4 µM and active: 10.3 µM
12 | COc1cc(OC)cc(C(=O)NCc2ccc(-n3cccc3)cc2)c1 | – | inconclusive [inhibitor, single point]
13 | CCCn1c(SCC(=O)Nc2ccccc2CC)nnc1C(C)C | – | active: 18.4 µM
14 | CCOc1cc(C(c2c(C)[nH][nH]c2=O)c2c(C)[nH][nH]c2=O)ccc1OS(=O)(=O)c1ccc(C)cc1 | inactive: -9.25% | –
15 | Cc1c(O)ccc2c1OC(C)(C)CC2 | – | active: 3.98 µM
16 | O=C(O)c1ccc(N=N/C(=N\Nc2ccc(C(=O)O)cc2)c2ccccc2)cc1 | – | inconclusive [inhibitor, single point]
17 | COc1cc2c(NC3CCN(C)CC3)nc(N3CCCN(C)CC3)nc2cc1OCCCCN(C)C | – | inconclusive [inhibitor, partial curve]
18 | COc1cc(NC(=O)C2CCN(c3nc4ccccc4nc3C(F)(F)F)CC2)cc(OC)c1 | – | active: 25.9 µM
19 | O=C(Nc1sc2c(c1C(=O)O)CCCCC2)c1cccs1 | – | inconclusive [inhibitor, single point]
